Structures are written as SMILES. Out of some 310,000 compounds screened, about 14,000 (4.5%) showed an effect of 50% or more. Effects have a minus sign here. The list shows a part of the results.
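Note: peak tail current of the secondary pulse compared with the same well before compound.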

Sequence of human ether-à-go-go-related gene (hERG) potassium channel (Q12809 whole entry, looked up): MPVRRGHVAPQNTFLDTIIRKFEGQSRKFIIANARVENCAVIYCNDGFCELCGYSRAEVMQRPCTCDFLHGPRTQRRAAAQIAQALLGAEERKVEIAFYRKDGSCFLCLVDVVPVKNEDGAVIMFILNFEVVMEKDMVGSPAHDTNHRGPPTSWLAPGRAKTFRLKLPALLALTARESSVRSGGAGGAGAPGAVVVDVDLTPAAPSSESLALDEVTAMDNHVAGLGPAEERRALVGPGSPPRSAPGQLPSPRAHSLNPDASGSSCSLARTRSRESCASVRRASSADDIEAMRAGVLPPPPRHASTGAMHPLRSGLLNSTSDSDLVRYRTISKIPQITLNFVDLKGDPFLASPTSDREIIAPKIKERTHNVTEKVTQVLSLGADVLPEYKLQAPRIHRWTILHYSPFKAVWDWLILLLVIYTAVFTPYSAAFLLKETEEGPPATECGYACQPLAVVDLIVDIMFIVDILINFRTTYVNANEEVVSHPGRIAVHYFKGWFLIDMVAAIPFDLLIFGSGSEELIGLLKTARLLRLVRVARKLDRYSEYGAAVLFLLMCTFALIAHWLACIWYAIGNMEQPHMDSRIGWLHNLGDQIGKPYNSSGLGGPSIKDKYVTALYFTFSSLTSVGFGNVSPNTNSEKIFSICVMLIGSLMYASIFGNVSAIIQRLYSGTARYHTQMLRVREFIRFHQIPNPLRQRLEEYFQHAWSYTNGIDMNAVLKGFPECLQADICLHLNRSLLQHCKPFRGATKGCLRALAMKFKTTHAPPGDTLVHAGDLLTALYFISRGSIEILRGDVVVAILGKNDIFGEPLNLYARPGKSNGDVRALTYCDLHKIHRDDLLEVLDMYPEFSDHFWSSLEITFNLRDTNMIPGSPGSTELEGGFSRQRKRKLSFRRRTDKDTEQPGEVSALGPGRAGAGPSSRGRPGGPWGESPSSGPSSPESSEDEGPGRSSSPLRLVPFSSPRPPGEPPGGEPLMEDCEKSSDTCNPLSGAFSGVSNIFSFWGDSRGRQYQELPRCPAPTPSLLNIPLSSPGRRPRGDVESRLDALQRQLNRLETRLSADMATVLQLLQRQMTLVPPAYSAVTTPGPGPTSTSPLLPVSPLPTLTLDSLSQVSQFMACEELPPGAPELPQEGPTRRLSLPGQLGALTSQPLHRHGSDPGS

This test addresses human ether-à-go-go-related gene (hERG) potassium channel (human, UniProt Q12809). In words: primary screen, population patch clamp on CHO cells stably expressing hERG.
As for `COc1ccccc1C1=Nc2cccc3cccc(c23)N1`, the “hERG current change (%, negative = inhibition) at 10uM” value is recorded as -4.52%.
For `CC(NC(=O)c1ccccc1)C(=O)NNC(=O)c1ccccc1Cl` (stereo not shown) the value was -3.51%.
As for `CCOC(=O)N1CCN(C(=O)c2ccc(S(=O)(=O)c3ccc(C)cc3)c(NC(C)=O)c2)CC1`, the figure is 8.01%; as for `Cc1ccc(C)c(NC(=S)NC(NC(=O)OCc2ccccc2)C(Cl)(Cl)Cl)c1` (stereo not shown), 1.83%.
As for `CCOc1ccc(CN(C)C(=O)CNC(=O)c2cc(OC)c(OC)c(OC)c2)cc1`, the figure is 9.02%.
`C/C=C(\C)CN1CCC(n2nccc2NC(=O)c2ccc(OC)cc2)CC1`: the “hERG current change (%, negative = inhibition) at 10uM” value was determined as 2.92%.
As for `Cc1n[nH]c(=S)n1/N=C/c1ccccc1OCc1ccc(Cl)cc1`, the figure is 1.76%.
As for `O=C(c1cccs1)N1CCC(c2nc3c(nnn3Cc3cccc(Cl)c3)c(=O)[nH]2)CC1`, the figure is -21.4%.
Regarding `CC(C)(C)OC(=O)NCCCC1=CC2=CC(=O)C(C)(OC(=O)C3CCCC3)C(=O)C2=CO1` (stereo not shown), the “hERG current change (%, negative = inhibition) at 10uM” value came to 6.13%.
Take `Cc1oc2c(c1C(=O)Nc1ccc(C(=O)O)cc1)CCCC2`: the “hERG current change (%, negative = inhibition) at 10uM” value is -8.8%.
For `Cc1c(C)c(C)c(S(=O)(=O)N2CCC3(CC2)OCCO3)c(C)c1C` the value was -0.826%; for `Cc1ccccc1NC(=O)CCc1nnc2ccc(N3CCC4(CC3)OCCO4)nn12`, 8.74%; for `CC(c1nnc(SCC(=O)N(C)C2CCS(=O)(=O)C2)n1-c1ccccc1)N(C)C` (stereo not shown), 4.64%.
For `Cc1ccc(NC(=O)c2ccc(Cl)c(N3C(=O)CCC3=O)c2)cc1` the value was 10.1%; for `CCOC(=O)COc1cc2oc(=O)cc(C)c2cc1[N+](=O)[O-]`, -13.5%; for `Cc1ccc(Cl)cc1NC(=O)COC(=O)c1ccccc1O`, 1.9%.
As for `CC(=O)N(C)c1ccc(OCC(O)Cn2c3ccc(Cl)cc3c3cc(Cl)ccc32)cc1` (stereo not shown), the figure is 8.65%; as for `COc1ccc(C(=O)Nc2cccnc2Sc2ccc(Cl)cc2)cc1`, 5.39%.
For the molecule `COc1cccc(CNS(=O)(=O)c2c(C)nc3scc(C)n3c2=O)c1`, the “hERG current change (%, negative = inhibition) at 10uM” value is given as 3.98%.
Regarding `CCOC(=O)c1ccc(CS(=O)c2ccc(Cl)cc2)o1` (stereo not shown), the “hERG current change (%, negative = inhibition) at 10uM” value is -3.47%.
Regarding `Fc1ccccc1C1c2[nH]c3ccccc3c2CCN1Cc1ccoc1` (stereo not shown), the “hERG current change (%, negative = inhibition) at 10uM” value is -51.7%.
For `O=C(Cc1csc(-c2ccccc2)n1)NCc1ccccc1F` the value was -9.43%.
Turning to `O=C(/C=C/c1ccc[nH]1)c1ccc(F)cc1`, the “hERG current change (%, negative = inhibition) at 10uM” value is recorded as 23%.
For the molecule `CN(C)S(=O)(=O)c1ccc(NC(=O)c2cccnc2)cc1`, the “hERG current change (%, negative = inhibition) at 10uM” value is recorded as 6.81%.
For `CC(C1CC1)N(Cc1ccccc1)C(=O)NC(=O)c1ccc(F)cc1` (stereo not shown) the value was -3.39%.
Regarding `COC(=O)c1ccc(=O)c2nc3/c(=C/O)c(O)cc(=O)c3[nH]c12`, the “hERG current change (%, negative = inhibition) at 10uM” value is listed as -0.982%.
As to `CCc1nn(CC(=O)N2CCCCCC2)c(=O)c2cc3ccccc3n12`, the “hERG current change (%, negative = inhibition) at 10uM” value was -18.6%.
On to `O=C(Nc1ccc(O)c(C(=O)O)c1)c1cccc(NC(=O)c2ccco2)c1`, for which the “hERG current change (%, negative = inhibition) at 10uM” value stood at 3.91%.
For `CSc1nc(C)c(Cc2c(F)cccc2Cl)c(=O)[nH]1` the value was 8.83%.
Consider `O=C(CSc1nnc(COc2ccccc2Cl)o1)Nc1ccccc1`, for which the “hERG current change (%, negative = inhibition) at 10uM” value was determined as 5.87%.
As for `CCCCc1ccc(NS(=O)(=O)c2cccs2)cc1`, the figure is -6.13%.
For `CC1CCCCN1Cc1c(O)ccc2c(=O)c(-c3ccccc3)coc12` (stereo not shown) the value was -38.2%; for `Cc1nonc1OCCNc1ccc([N+](=O)[O-])cc1[N+](=O)[O-]`, -54.7%; for `Cc1nn(CCC(=O)NNC(=S)Nc2ccc(F)cc2)c(C)c1Br`, 10.6%.
As to `CS(=O)(=O)c1nc(-c2cccs2)cc(C(F)(F)F)n1`, the “hERG current change (%, negative = inhibition) at 10uM” value was -8.38%.
Consider `COc1ccccc1N(CC(=O)NC1CCCC1)S(=O)(=O)c1ccc(C)cc1`, for which the “hERG current change (%, negative = inhibition) at 10uM” value is given as -5.82%.
As for `CCOC(=O)c1sc(NC(=O)c2cccc(S(=O)(=O)N(CC)CC)c2)cc1C`, the figure is 0.563%; as for `COc1ccc(C2(C)NC(=O)N(CC(=O)Nc3cccnc3Cl)C2=O)cc1` (stereo not shown), 2.37%; as for `COc1ccc(-c2nnc(SCC(=O)c3cccs3)o2)cc1`, -8.4%.
As for `CC1(c2nnc(-c3ccccc3)o2)CC(c2c(Cl)cccc2Cl)=NO1` (stereo not shown), the “hERG current change (%, negative = inhibition) at 10uM” value came to 23.4%.
For `O=C(OCC(=O)c1c[nH]c2ccccc12)c1ccco1`, the “hERG current change (%, negative = inhibition) at 10uM” value is on record as 8.95%.
For `CC1CCN(C(=O)CCc2nnc3ccc(N4CCC5(CC4)OCCO5)nn23)CC1` the value was 18.6%; for `NC(=O)C1CCN(C(=O)c2ccc(OCC(=O)Nc3cccc(C(F)(F)F)c3)cc2)CC1`, 1.96%.
For `C=C(C)COc1ccc(-c2n[nH]c(C)c2-c2ccc(OC)c(OC)c2)c(O)c1` the value was 21.6%; for `Cc1ccc(S(=O)CCNC(=O)Cc2ccccc2)cc1` (stereo not shown), 10.1%; for `COc1ccc(-n2nc(C(=O)NCC(=O)NCC3COc4ccccc4O3)c3ccccc3c2=O)cc1` (stereo not shown), -15.5%.
For `Cc1cccc(NC(=O)CCC(=O)N/N=C/c2cc([N+](=O)[O-])ccc2O)c1` the value was 3.6%; for `Cc1ccc(C(=O)N/C(=C\c2ccc(-c3cccc([N+](=O)[O-])c3)o2)C(=O)NCCCN2CCOCC2)cc1`, -74.9%.
Take `Cc1ccc(OCC(=O)NCCNC(=O)c2ccncc2)cc1C`: the “hERG current change (%, negative = inhibition) at 10uM” value stood at 15.9%.
As for `CCCc1cc(=O)oc2cc(C)cc(OCC(=O)N3CCC(C(N)=O)CC3)c12`, the figure is -5.95%; as for `COc1ccc(N(C2CSC2)S(=O)(=O)c2ccccc2)cc1`, 8.52%; as for `Cn1c(SCc2ccc(Br)cc2)nnc1-c1ccncc1`, -28.8%.
For `COCCN(CCOC)c1cc(C)c(C#N)c2nc3ccccc3n12` the value was -15.4%; for `CC(C)CCN1C(=O)c2ccc(C(=O)Nc3c[nH]c(=O)[nH]c3=O)cc2C1=O`, 12.4%; for `Clc1ccc(C(c2ccccc2Cl)C(Cl)Cl)cc1` (stereo not shown), -1.99%.

The values above are taken from PMC4336329 (PLoS ONE, 2015).
